Measurements: PMC6919601, “Identification of Plasmodium dipeptidyl aminopeptidase allosteric inhibitors by high throughput screening” (PLoS ONE, 2019)
About 230 (0.21%) of roughly 110,000 compounds showed an effect of 50% or more. This is one part of the list.

biological target: DPAP1 (Plasmodium falciparum, UniProt Q8IIJ9); assay: primary screen, percent inhibition; read by cleavage of a fluorogenic dipeptide substrate; higher = more effect of the substance; design: species or system P. falciparum D10 trophozoite lysates; single well
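Further: 30 min substrate incubation versus DMSO and 10 µM JCP410 controls.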

Chain of DPAP1 (Q8IIJ9 whole entry, looked up): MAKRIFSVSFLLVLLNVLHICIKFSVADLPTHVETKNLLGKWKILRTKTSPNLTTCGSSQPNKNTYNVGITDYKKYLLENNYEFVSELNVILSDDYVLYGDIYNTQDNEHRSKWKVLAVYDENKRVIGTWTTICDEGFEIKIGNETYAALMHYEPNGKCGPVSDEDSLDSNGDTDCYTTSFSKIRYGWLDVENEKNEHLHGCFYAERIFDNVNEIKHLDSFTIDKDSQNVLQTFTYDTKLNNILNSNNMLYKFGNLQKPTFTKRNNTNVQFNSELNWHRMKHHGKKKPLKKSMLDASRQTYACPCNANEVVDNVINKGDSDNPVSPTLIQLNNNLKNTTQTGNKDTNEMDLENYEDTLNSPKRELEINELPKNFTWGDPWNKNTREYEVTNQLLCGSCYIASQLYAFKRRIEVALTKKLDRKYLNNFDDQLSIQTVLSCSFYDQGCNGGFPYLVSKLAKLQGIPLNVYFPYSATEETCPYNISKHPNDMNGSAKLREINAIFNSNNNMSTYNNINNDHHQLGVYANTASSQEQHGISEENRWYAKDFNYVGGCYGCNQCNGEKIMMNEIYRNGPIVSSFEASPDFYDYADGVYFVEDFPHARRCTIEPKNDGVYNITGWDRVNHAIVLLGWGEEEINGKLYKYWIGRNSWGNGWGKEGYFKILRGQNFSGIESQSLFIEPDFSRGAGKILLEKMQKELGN

Going from COc1ccc(NC(=O)Cc2ccc(OC)c(OC)c2)c(OC)c1 to COc1cc(C(=O)N2CCN(Cc3ccc(Cl)cc3)CC2)cc(OC)c1OC, the “% Inhibition @ 10 uM” value rises from -5.13% to -2.17%.

First: Cc1ccc2c(c1)-c1c(cnn1CC(=O)N1C(C)CCCC1C)CO2 (centres unmarked)
Second: Cc1ccc(C(C)C)c(OCC(=O)n2nc(C)cc2C)c1
The “% Inhibition @ 10 uM” value of the first is lower: -4.71% for the first, 4.74% for the second.

Compared with COc1cc(C2c3c(oc4ccc(Br)cc4c3=O)C(=O)N2Cc2ccccc2)ccc1O (centres unmarked), COc1cccc(/C=C2\NC(=O)N(Cc3ccccc3)C2=O)c1O is lower in “% Inhibition @ 10 uM” value: 6.7% for the first, 2.01% for the second.

First: CN1CCN(C(=O)c2ccc3c(c2)C2C4CCC(C4)C2C(c2ccccc2)N3)CC1 (centres unmarked)
Second: Cc1ccccc1N(CC(=O)N1CCC(C)CC1)S(=O)(=O)c1ccccc1
The “% Inhibition @ 10 uM” value of the first is higher: 0.823% for the first, -2.6% for the second.

Compared with O=C(CCCN1C(=O)c2ccccc2C1=O)NCc1nc(-c2ccc(Cl)cc2)no1, O=C(CCN1C(=O)c2ccccc2C1=O)N1CCc2ccccc2C1 is higher in “% Inhibition @ 10 uM” value: 0.486% for the first, 3.04% for the second.

Going from Cc1ccc(CN2CCN(c3ccc(Cl)cc3)CC2)c(C)c1 to CCOc1cc(CN2CCN(Cc3ccccc3)CC2)ccc1OC, the “% Inhibition @ 10 uM” value rises from -5.41% to 1.48%.

First: CC(CCc1ccccc1)NC(=O)c1cc(-c2ccncc2)nc2ccccc12 (centres unmarked)
Second: c1ccc2c(CNCCc3c[nH]c4ccccc34)cccc2c1
The “% Inhibition @ 10 uM” value of the first is lower: -4.06% for the first, 0.673% for the second.

First: CCCOc1ccc(CNC(=O)c2ccc(CN3CC(=O)N4CCCCC4C3=O)cc2)cc1 (centres unmarked)
Second: O=C(NCc1ccccc1)c1ccc(CNc2c(N3CCCC3)c(=O)c2=O)cc1
The “% Inhibition @ 10 uM” value of the first is lower: 1.97% for the first, 5.91% for the second.

First: N#Cc1ccc(Oc2cccc(N)c2)cc1Oc1cccc(N)c1
Second: COc1ccc(NC(=O)/C(=C\c2ccccc2OC)NC(=O)c2cccc(C)c2)cc1
The “% Inhibition @ 10 uM” value of the first is lower: -5.7% for the first, 4.33% for the second.

First: Cc1ccsc1/C=C/C(=O)NCC(=O)N1CCC(N(C)C2CCCCC2C)CC1 (centres unmarked)
Second: CCOC(=O)c1cccc(NC(=O)C2CCCCC2)c1
The “% Inhibition @ 10 uM” value of the first is lower: -0.971% for the first, -0.318% for the second.

Compared with CC(Oc1ccc(Cl)cc1Cl)C(=O)Nc1cccnc1Cl (centres unmarked), O=C(Nc1cccnc1Cl)C1CC(c2ccccc2F)=NO1 (centres unmarked) is higher in “% Inhibition @ 10 uM” value: -0.48% for the first, -0.431% for the second.

Going from CCN1CCCC1CNc1nc2ccc(Cl)cc2n2cnnc12 (centres unmarked) to CCC1CCCN1Cn1cnc2c3ccccc3nc-2c1O (centres unmarked), the “% Inhibition @ 10 uM” value falls from 5.84% to 1.64%.

Going from COc1ccc(/C=C/C(=O)OCCN(C)Cc2ccccc2)cc1 to COc1cccc(Sc2ccccc2CN(C)C)c1, the “% Inhibition @ 10 uM” value rises from -10.8% to -2.29%.

First: CC(=O)c1c(C(C)=O)c(C)n(Cc2ccccc2)c1C
Second: Cc1ccc(NC(=O)COc2ccccc2C)cc1O
The “% Inhibition @ 10 uM” value of the first is higher: 3.18% for the first, -2.74% for the second.

Compared with O=C(NCc1cccnc1)C1CC(=O)N(C2CCCCC2)C1 (centres unmarked), CN1C(=O)C(CC(=O)NC2CCCCC2)S/C1=N\c1ccccc1 (centres unmarked) is lower in “% Inhibition @ 10 uM” value: 0.302% for the first, -0.796% for the second.

Going from COc1ccccc1Nc1nc(-c2cccc(N3C(=O)c4ccccc4C3=O)c2)cs1 to Cc1ccnc(SC2CC(=O)N(c3ccc(-c4ccccc4)cc3)C2=O)n1 (centres unmarked), the “% Inhibition @ 10 uM” value falls from 1.41% to -4.14%.

Compared with O=C(NCC1(c2ccccc2)CCOCC1)C1COc2ccccc2O1 (centres unmarked), Fc1ccccc1-c1nnc(CN2CCN(Cc3ccccc3)CC2)o1 is lower in “% Inhibition @ 10 uM” value: 1.84% for the first, -2.78% for the second.

First: Cc1ccc2nc(-c3ccc(NC(=O)c4cccnc4)cc3)sc2c1
Second: COc1ccc(N(C(C)C(=O)Nc2ccc(C)cc2)S(C)(=O)=O)cc1 (centres unmarked)
The “% Inhibition @ 10 uM” value of the first is higher: -0.622% for the first, -3.18% for the second.

First: CCCCN1C(=O)NC(NC(=O)c2ccc(C(C)(C)C)cc2)(C(F)(F)F)C1=O (centres unmarked)
Second: COc1ccccc1NC(=O)c1c(NC(=O)C(C)(C)C)sc2c1CCC2
The “% Inhibition @ 10 uM” value of the first is higher: 0.221% for the first, -0.46% for the second.

Going from COc1ccc(CCNc2ncc3c(n2)CC(c2cccs2)CC3=O)cc1 (centres unmarked) to CCOc1ccc(C(=O)c2cnc3ccccc3c2N2CCCC2)cc1, the “% Inhibition @ 10 uM” value falls from 8.44% to -2.18%.

First: COc1cc2cc(CO)c(O)nc2cc1OC
Second: COc1cc(CNc2ccc(F)c(Cl)c2)cc(OC)c1O
The “% Inhibition @ 10 uM” value of the first is higher: 2.05% for the first, -7.93% for the second.

First: CCCC(=O)Nc1nc2n(n1)C(c1ccc(Cl)cc1)C=C(c1ccccc1)N2 (centres unmarked)
Second: CCOc1ccccc1CNC(=O)C(C)n1sc2ccccc2c1=O (centres unmarked)
The “% Inhibition @ 10 uM” value of the first is higher: 1.62% for the first, -3.43% for the second.

Going from CCOC(=O)N1CCN(C(=O)CSc2nc3c(c(=O)n2CCc2ccccc2)SCC3)CC1 to CC(C(=O)N1CCCCC1)N(c1ccccc1)S(C)(=O)=O (centres unmarked), the “% Inhibition @ 10 uM” value rises from -2.55% to -2.28%.

Compared with COc1ccc(C(=O)Nc2ccc(Cl)cc2C(=O)N2CCC(C)CC2)cc1, COc1cc(C(=O)Nc2cccc(C)c2C)ccc1OC(F)F is lower in “% Inhibition @ 10 uM” value: 3.29% for the first, -2.85% for the second.

Compared with Cc1cc(-c2ccc(C)c(S(=O)(=O)N3CCC4(CC3)OCCO4)c2)on1, COc1cc(OC)cc(-c2cc(N)n(S(=O)(=O)c3cccc4nsnc34)n2)c1 is higher in “% Inhibition @ 10 uM” value: -6.86% for the first, -3.95% for the second.

First: N#CC1=C(N)C(C#N)(C#N)C(c2ccc[nH]2)C2CCCC=C12 (centres unmarked)
Second: CCSC1=C(C#N)C(c2ccc(C)s2)CC(=O)N1 (centres unmarked)
The “% Inhibition @ 10 uM” value of the first is lower: -2.15% for the first, 2.46% for the second.

First: Cc1ccc2oc(C(=O)NCC(c3ccco3)N(C)C)c(C)c2c1 (centres unmarked)
Second: COc1ccccc1NC(=O)c1ccco1
The “% Inhibition @ 10 uM” value of the first is higher: 0.00706% for the first, -1.93% for the second.

First: Nc1ncc(Cc2ccccc2Cl)s1
Second: C=CCN(CC=C)C(=O)c1c(-c2ccccc2Cl)noc1C
The “% Inhibition @ 10 uM” value of the first is higher: 11.1% for the first, -3.69% for the second.

First: Clc1cccc(CSc2nc3ncccc3o2)c1
Second: Cc1ccc(-c2noc(CSc3nnc(-c4ccncc4)n3CC(C)C)n2)cc1
The “% Inhibition @ 10 uM” value of the first is higher: -5.22% for the first, -7.86% for the second.

Going from O=C(O)C1C2CCC(O2)C1C(=O)NCc1ccc2c(c1)OCO2 (centres unmarked) to COC(=O)C1=CN(C(C)C)C=C(C(=O)OC)C1c1ccc(OCc2ccccc2)c(OC)c1, the “% Inhibition @ 10 uM” value rises from 2.51% to 3.45%.

Compared with CC(=O)O/N=C(\N)c1ccncc1, Cc1ccc(/C=C/C(=O)c2c(O)nc(C)c3c2CCCC3)cc1 is lower in “% Inhibition @ 10 uM” value: 2.03% for the first, -4.3% for the second.

First: COc1cc(OC)c(OC)cc1/C=C1/NC(=O)N(Cc2ccccc2F)C1=O
Second: CCOC(=O)c1c(C)nc(C)c(C(=O)OCC)c1-c1ccc(O)c(OC)c1
The “% Inhibition @ 10 uM” value of the first is lower: -11.6% for the first, -4.04% for the second.

CCN1CCN(c2cc(=O)n3c(n2)SCCC3)CC1 was tested, and the “% Inhibition @ 10 uM” value was -2.92%.
